Measured values published in patent US5266328A, “Laminin a chain polypeptides from the carboxy terminal globular domain” (Regents of the University of Minnesota, priority 1990, dated 1993).
“Also recorded” adds a separate entry of the source. Part of at least one peptide drawing is inferred or uncertain, most often the ends. Some entries repeat one wording, which the source may state once for all of them. Some ranges recur; such a range may be that of the whole group of compounds. Ends that are not written are not given here.

Key:
[1] = Solid-phase binding of 3H-heparin to peptides adsorbed to plastic plates (RLBA); details: for Heparin Binding (bound ^3 H-heparin as percent of input): One microgram peptide adsorbed, 200,000 dpm ^3 H-heparin, 20 mM Tris pH 6.8, 50 mM NaCl, 2 mg/ml ovalbumin; for Bound ^3 H-heparin as percent of input, 0.05M NaCl / Bound ^3 H-heparin as percent of input, 0.15M NaCl / Bound ^3 H-heparin as percent of input, 0.5M NaCl / Bound ^3 H-heparin as percent of input, 1.0M NaCl: Two micrograms peptide adsorbed, 0.02M Tris pH 6.8, 2 hr 37 C; for Heparin binding activity group: grouping of the Table II results in words
Description: The binding of ^3 H-heparin to laminin A chain peptides was measured in a direct solid phase binding assay as described below, whereby various amounts of the peptides were adsorbed to plates and ^3 H-heparin was added to each well. More specifically, the binding of ^3 H-heparin (0.3 mCi/mg; Du Pont - New England Nuclear Research Products, Wilmington, Del.) to laminin, synthetic peptides, and bovine serum albumin (BSA) (fatty acid free, fraction V, ICN Immunobiologicals) was quantititated by a solid-phase RLBA in 96-well polystyrene Immulon 1 plates (Dynatech Laboratories, Inc., Alexandria, Va.) as described by Skubitz et al., supra (1988). Specifically, 50 microliters of the various proteins at various concentrations (0.2 μg/well-5.0 μg/well) in PBS containing 0.02% NaN3 was added to each well and dried overnight at 29° C. The next day, 200 μl of 2 mg/ml BSA in PBS was added to each well, followed by a 2 hour incubation at 37° C. After removal of this buffer, 50 μl of ^3 H-heparin (200,000 dpm) was added in RLBA buffer (20 mM Tris, pH 6.8 containing 50 mM NaCl and 2 mg/ml ovalbumin) and the wells were incubated at 37° C. for 2 hours. Unbound ^3 H-heparin was removed by washing three times with wash buffer (RLBA buffer containing 0.1% CHAPS). Tritiated heparin was solubilized by incubation with 200 μl of 0.05N NaOH and 1% SDS for 30 minutes at 60° C. and quantitated in a Beckman LS-3801 scintillation counter.
The above experimental procedure was repeated to determine the percentage of ^3 H-heparin that would adhere to 2 μg/well of each polypeptide after a two-hour incubation in increasing concentrations of salt (NaCl).

[2] = system: eight different cell lines of murine or human origin; assay: Direct cell adhesion, summary over eight tumor cell lines; type: cell-based; details: summary of Table IV over eight cell lines
Text: The murine melanoma K-1735-C10 (low metastatic) and K-1735-M4 (high metastatic) cell lines, murine UV-2237-MM fibrosarcoma cell line, human renal carcinoma SN12 C (low metastatic) and SN12 PM-6 (high metastatic) cell lines, and human colon carcinoma KM12 C (low metastatic) and KM12 SM (high metastatic) cell lines were originally provided by Dr. I. J. Fidler (M.D., Anderson Hospital, University of Texas Health Sciences Center, Houston, Tex.). The human fibrosarcoma HT-1080 cell line was obtained from the ATCC. The MM fibrosarcoma cell line was maintained in DME (GIBCO Laboratories, Grand Island, N.Y.) containing 10% FBS, the murine melanomas were maintained in DMEM containing 10% calf serum, the human fibrosarcoma cells were maintained in EMEM containing 10% heat inactivated FBS, and the human renal and colon carcinoma cells were grown in EME containing 10% FBS, vitamins, and 1 mM sodium pyruvate. Cells were passaged for 4 to 5 weeks and then replaced from frozen stocks of early passage cells to minimize phenotypic drift. Cells were maintained at 37° C. in a humidified incubator containing 5% CO2.
The direct adhesion of cells to protein or peptide coated surfaces was performed as described in Skubitz et al., Exp. Cell Res., 173, 349-360 (1987) and Charonis et al., supra (1988). Briefly, radiolabeled cells were added to 96-well microtiter plates coated with various concentrations of synthetic peptides, laminin, or BSA (0.02 μg/well-50 μg/well from 50 μl solutions) for various lengths of time. After the incubation period, loosely or nonadherent cells were removed by washing the wells three times. Adherent cells were solubilized and quantitated in a scintillation counter. More specifically, cultures of cells which were 60-80% confluent were metabolically labeled for 24 hours with the addition of 3 μCi/ml of ^3 H-td (tritiated thymidine). On the day of the assay, the cells were harvested by trypsinization, the trypsin was inhibited by the addition of serum, and the cells were washed free of this mixture and resuspended in DMEM buffered with HEPES at pH 7.2. The adhesion medium also contained 2 mg/ml BSA. The cells were adjusted to a concentration of 3-4×10^4 /ml, and 100 μl of this cell suspension was added to the wells. The assay mixture was then incubated at 37° C. for 120 minutes. At the end of the incubation, the wells were washed with warm DMEM/Hepes containing 2 mg/ml BSA, and the adherent population was solubilized with 0.5N NaOH contained 1% SDS. The solubilized cells were then quantitated using a liquid scintillation counter.
Instead of attempting to characterize the cell binding activity of all 14 of the synthetic peptides, a number of peptides from each of the three heparin binding categories of peptides were evaluated. Microtiter wells were adsorbed with the peptides, laminin, or BSA and a variety of tumor cell lines were tested for the ability to adhere to the ligands. The eight different cell lines selected for this study were of murine or human origin and, in most cases, of either high or low metastatic capacity. […] Many of the peptides that were very good at binding heparin and cells were also capable of inhibiting the adhesion of various cells to surfaces coated with laminin (see below).

[3] = system: HT-1080 human fibrosarcoma cells; assay: Cell spreading assay; type: cell-based; details: wells coated at 100 μg/ml, 2 1/2 hour incubation; for Surface Area Occuppied by a Cell: HT-1080, Table VII; for Surface Area Occupied by a Cell: human fibrosarcoma (HT1080), Table VI
Description: Spreading of the adherent cells was evaluated by performing adhesion assays similar to those described above. Twenty-four well tissue culture plates (Becton Dickinson and Co., Lincoln Park, N.J.) were coated with 300 μl of laminin, synthetic peptides, or BSA at 100 μg/ml, then blocked with 2 mg/ml BSA in PBS. Three hundred microliters of a cell suspension at 5×10^4 cells/ml was added to each well, and after a 21/2 hour incubation, nonadherent cells were aspirated out of the wells. Adherent cells were fixed with 2% glutaraldehyde in PBS at 23° C. for one hour. The glutaraldehyde was then removed and the cells were stained by two different techniques. For photographic purposes, the cells were stained with Diff-Quik Solution I (American Scientific Products, McGaw Park, Ill.) for 10 minutes at 23° C. Solution I was removed, then Diff-Quik Solution II was added and the cells were stained for another 10 minutes at 23° C. Wells were washed with PBS, then representative cells were photographed with a Nikon DIAPHOT inverted phase microscope using Panatomic X Film ASA32 (Eastman Kodak, Rochester, N.Y.). Adherent cells to be quantitated for spreading were stained overnight at 23° C. with 500 μl of a solution containing 0.12% (w/v) Coomassie Brilliant Blue R (Sigma Chemical Co.), 5% (v/v) acetic acid, and 50% (v/v) ethanol. Wells were washed three times with 500 μl of PBS and cell spreading was then quantitated by measuring the average surface area occupied by a cell using an Opti-Max Image Analyzer. Thirty cells were measured per well; each experiment was done in quadruplicate and repeated three times. In all cases, the cells spread on the peptides to occupy an area about 60% of that seen on laminin-coated surfaces.

GRLHFMFDLGKGRTKVSHP [Peptide R27, GRLHFMFDLGKGRTKVSHP]
Heparin Binding (bound ^3 H-heparin as percent of input) [1]: *** (6.0-10.0% (***))
Bound ^3 H-heparin as percent of input, 0.05M NaCl [1]: *** (6.0-10.0% (***))
Bound ^3 H-heparin as percent of input, 0.15M NaCl [1]: *** (6.0-10.0% (***))
Bound ^3 H-heparin as percent of input, 0.5M NaCl [1]: ** (4.0-5.9% (**))
Heparin binding activity group [1]: moderate heparin binding
promotion of cell adhesion, in words [2]: also promoted cell adhesion
Surface Area Occuppied by a Cell [3]: 412 +/- 31 um2
Surface Area Occupied by a Cell [3]: 412 ± 31 μm^2

GTKDFLSIELVRGRVKVMVD [Peptide R33]
Heparin Binding (bound ^3 H-heparin as percent of input) [1]: **** (>10% [****])
Bound ^3 H-heparin as percent of input, 0.05M NaCl [1]: **** (>10% (****))
Bound ^3 H-heparin as percent of input, 0.15M NaCl [1]: **** (>10% (****))
Bound ^3 H-heparin as percent of input, 0.5M NaCl [1]: ** (4.0-5.9% (**))
Heparin binding activity group [1]: very good heparin binding
promotion of cell adhesion, in words [2]: capable of promoting the adhesion of all eight cell lines
Surface Area Occuppied by a Cell [3]: 409 +/- 39 um2
Surface Area Occupied by a Cell [3]: 409 ± 39 μm^2

HSISLVRNRRVITIQ [Peptide R36, HSISLVRNRRVITIQ]
Heparin Binding (bound ^3 H-heparin as percent of input) [1]: *** (6.0-10.0% (***))
Bound ^3 H-heparin as percent of input, 0.05M NaCl [1]: *** (6.0-10.0% (***))
Bound ^3 H-heparin as percent of input, 0.15M NaCl [1]: *** (6.0-10.0% (***))
Bound ^3 H-heparin as percent of input, 0.5M NaCl [1]: *** (6.0-10.0% (***))
Bound ^3 H-heparin as percent of input, 1.0M NaCl [1]: * (2.0-3.9% (*))
Heparin binding activity group [1]: moderate heparin binding
promotion of cell adhesion, in words [2]: also promoted cell adhesion
Surface Area Occuppied by a Cell [3]: 342 +/- 28 um2

KATPMLKMRTSFHGCIK [Peptide R37, KATPMLKMRTSFHGCIK]
Heparin Binding (bound ^3 H-heparin as percent of input) [1]: **** (>10% [****])
Bound ^3 H-heparin as percent of input, 0.05M NaCl [1]: **** (>10% (****))
Bound ^3 H-heparin as percent of input, 0.15M NaCl [1]: **** (>10% (****))
Bound ^3 H-heparin as percent of input, 0.5M NaCl [1]: *** (6.0-10.0% (***))
Bound ^3 H-heparin as percent of input, 1.0M NaCl [1]: * (2.0-3.9% (*))
Heparin binding activity group [1]: very good heparin binding
promotion of cell adhesion, in words [2]: capable of promoting the adhesion of all eight cell lines
Surface Area Occuppied by a Cell [3]: 396 +/- 32 um2

KEGYKVRLDLNITLEFRTTSK [Peptide R38]
Heparin Binding (bound ^3 H-heparin as percent of input) [1]: **** (>10% [****])
Bound ^3 H-heparin as percent of input, 0.05M NaCl [1]: **** (>10% (****))
Bound ^3 H-heparin as percent of input, 0.15M NaCl [1]: **** (>10% (****))
Bound ^3 H-heparin as percent of input, 0.5M NaCl [1]: *** (6.0-10.0% (***))
Bound ^3 H-heparin as percent of input, 1.0M NaCl [1]: * (2.0-3.9% (*))
Heparin binding activity group [1]: very good heparin binding
^3 H-heparin binding, in words ([1]; increasing concentrations of peptide adsorbed (FIG. 3)): concentration-dependent manner; also recorded: binds
promotion of cell adhesion, in words [2]: capable of promoting the adhesion of all eight cell lines
Surface Area Occuppied by a Cell [3]: 388 +/- 29 um2
